# From PubChem BioAssay AID504832 (National Center for Advancing Translational Sciences (NCATS), 2011)
# The campaign covered roughly 310,000 compounds. About 18,000 (5.8%) were called active. Inconclusive results, whose numbers are uncertain, are shown with a selection of clear calls. The call rests on the fitted dose curve; in most records, active means well fitted inhibition curve with a large enough effect; inconclusive means small, poorly fitted or top-dose-only effect, or another doubt; inactive means no such curve, though single readings can be large or run the other way. No potency is given beside an inconclusive call; the fits are too rough.
# Assay: Primary qHTS for delayed death inhibitors of the malarial parasite plastid, 48 hour incubation
# Conditions: P. falciparum luciferase growth in erythrocytes; series mostly up to 28.7 µM; activity change, negative = inhibition: at the top concentration
# Summary of the method: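 Compounds are pin-transferred into medium, infected erythrocytes (2% hematocrit, 0.1% parasitemia final) are added, and plates sit one parasite generation at 37 C in 5% CO2. Detection reagent is then added and luminescence measured.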
# On the % scale 0 is the no-effect control and ±100 the full control effect; potency means the concentration at half of the fitted maximal effect; tags describe the fitted curve by direction and shape.
Structure (SMILES),Potency,"activity change, negative = inhibition"
CC(C)(C)n1nnnc1C(c1ccccn1)N1CCN(C(c2ccccc2)c2ccccc2)CC1 (stereo not drawn),"inconclusive [inhibitor, full curve, poor fit]",
CCCCN(C)C(=O)C1CCCN(S(=O)(=O)c2ccc3c(c2)oc(=O)n3C)C1 (stereo not drawn),"inconclusive [inhibitor, partial curve, poor fit]",
COc1ccc(-c2noc(N3CCC(C(=O)NCc4ccccc4Cl)CC3)n2)cc1,"inconclusive [inhibitor, single point]",
Clc1ccc(CSc2nnnn2-c2ccc3c(c2)OCO3)c(Cl)c1,"inconclusive [inhibitor, partial curve, poor fit]",
CCOCCCNC(=O)C(NC(=O)c1ccccc1O)c1ccc(C)cc1 (stereo not drawn),"inconclusive [inhibitor, single point]",
CCOc1cccc(CNCc2cccnc2)c1OCc1ccccc1,"inconclusive [inhibitor, single point]",
O=c1c2ccccc2sn1-c1cc(S(=O)(=O)N2CCOCC2)ccc1N1CCOCC1,active: 3.7 µM,
O=C(N/N=C1\CC(c2ccccc2)Oc2ccccc21)c1ccccn1 (stereo not drawn),"inconclusive [inhibitor, single point]",
Cn1c(-c2ccsc2)c(-c2cccs2)c2cc(-c3ccc4cc[nH]c4c3)ccc21,active: 2.08 µM,
O=C(Cn1c(NCCO)nc2ccccc21)c1ccc([N+](=O)[O-])cc1,"inconclusive [inhibitor, single point]",
CCOC(=O)c1cc2[nH]c3ccccc3c2[n+](-c2ccc([N+](=O)[O-])cc2)c1N,active: 3.7 µM,
CC1(C)Cc2c(sc(NC(=O)COc3ccc(Cl)cc3)c2C#N)C(C)(C)N1,"inconclusive [inhibitor, single point]",
CCN(Cc1ccccc1)Cc1ccc(OCc2ccccc2)c(OC)c1,"inconclusive [inhibitor, single point]",
COc1ccc(C(=O)NC(=S)NNC(=O)c2ccc(NC(=O)C(C)C)cc2)cc1,"inconclusive [inhibitor, single point]",
COc1cccc(NC(=O)CN(C)C(C)C(=O)Nc2ccc(S(=O)(=O)N3CCCC3)cc2)c1 (stereo not drawn),active: 9.28 µM,
CCOC(=O)CCc1c(C)c2ccc(OC(C)C(=O)OCC)c(C)c2oc1=O (stereo not drawn),"inconclusive [inhibitor, single point]",
CC(C)CN1CCN(C2CCN(C(C)C)CC2)C(CCO)C1 (stereo not drawn),"inconclusive [inhibitor, single point]",
CSc1cccc(NC(=S)N(CCC(C)C)C2CCN(C(C)C)CC2)c1,"inconclusive [inhibitor, single point]",
CCOC(=O)N1CCN(C(=O)c2cn(CC)c3ccc(S(=O)(=O)N(C)C4CCCCC4)cc3c2=O)CC1,"inconclusive [inhibitor, single point]",
CCOC(=O)C(CC)Sc1ncnc2c1nnn2-c1ccc(F)cc1 (stereo not drawn),"inconclusive [inhibitor, full curve, poor fit]",
Cc1cccc(-n2nc(C(=O)c3ccco3)cc(-c3nc4ccccc4[nH]3)c2=N)c1,"inconclusive [inhibitor, partial curve, poor fit]",
Cc1cc(C)[n+](C)n1CC(O)Cn1c2ccccc2c2ccccc21 (stereo not drawn),active: 0.586 µM,
CC(C)Nc1nc(Cl)nc(NNC(=O)C(C)Oc2ccccc2)n1 (stereo not drawn),,inactive: -14.2%

Structure (SMILES),Potency,"activity change, negative = inhibition"
COC(=O)C1=C(C(=O)OC)[C@@H]2N(C)c3ccc(OC)cc3[C@@]23C[C@@H](C(=O)OC)N(S(=O)(=O)c2ccc([N+](=O)[O-])cc2)C3=N1,active: 7.38 µM,
Cc1c(C#N)c2ccccc2n1CC(=O)N1CCCc2ccccc21,active: 3.29 µM,
COC(CNC(=O)c1ccc2c(c1)ncn2C1CCCCCC1)OC,,inactive: -21.1%
CC1(C)Cc2c(c(-c3ccco3)nc3sc4c(NCCO)ncnc4c23)CO1,"inconclusive [inhibitor, single point]",
O=C(c1nn(Cc2ccccc2)c(=O)c2ccccc12)N1CCN(c2ccccn2)CC1,"inconclusive [inhibitor, single point]",
CCC(=O)c1ccccc1OCCCCn1cncn1,"inconclusive [inhibitor, partial curve, poor fit]",
CC1CCN(C(=O)c2ccc([N+](=O)[O-])o2)CC1,"inconclusive [inhibitor, single point]",
O=C(NCc1cccnc1)C(=O)NCC(c1ccco1)N1CCN(c2ccc(F)cc2)CC1 (stereo not drawn),"inconclusive [inhibitor, full curve]",
CCOC(=O)C1CCCN(C(=O)c2ccccc2NC(=O)C2=C(C)OCCS2)C1 (stereo not drawn),"inconclusive [inhibitor, partial curve]",
CCOc1nnc(C)c2c(C)n(-c3ccc(Cl)cc3)nc12,"inconclusive [inhibitor, partial curve, poor fit]",
CS(=O)(=O)c1sc(C(=O)NC(=O)Nc2cccc(C(F)(F)F)c2)c2c1C=CCC2,active: 2.33 µM,
O=C(/C=C/c1ccccc1)c1ccccc1,,inactive: 13.6%
Cc1cccc(-n2c(SCC(=O)NCC3CCCO3)nc3ccccc3c2=O)c1C (stereo not drawn),"inconclusive [inhibitor, single point]",
O=C1CN(C(=O)CN2C(=O)NC3(CCCCC3)C2=O)c2ccccc2N1,"inconclusive [inhibitor, single point]",
Cc1cc(-c2ccc(C)c(S(=O)(=O)NCc3cccc(Br)c3)c2)on1,"inconclusive [inhibitor, single point]",
COc1ccc(N(C)S(=O)(=O)c2cccc(C(=O)Nc3nc4ccccc4[nH]3)c2)cc1,"inconclusive [inhibitor, partial curve, poor fit]",
Cc1ccc(OCCNC(=O)c2ccc(C)cc2)cc1,,inactive: -1.89%
CC(C)CCNc1nc2c(c(=O)n(Cc3cccc(F)c3)c(=O)n2C)n1C,"inconclusive [inhibitor, single point]",
Cc1ccccc1N(C(=O)Cc1cccs1)C(C(=O)NC1CCCCC1)c1cn(C)nc1C (stereo not drawn),"inconclusive [inhibitor, partial curve, poor fit]",
CCCn1c(C)cc(C(=O)COC(=O)c2ccc[nH]c2=O)c1C,,inactive: 86.1%
Cc1cc(C)n2nc(-c3cnn(C)c3C(F)(F)F)cc2n1,"inconclusive [inhibitor, partial curve, poor fit]",
CCC(C(=O)NCCN1CCOCC1)n1nc(C)n2c(cc3sccc32)c1=O (stereo not drawn),,inactive: 13.9%
CCOc1ccc(OCCSc2nc3ccccc3o2)cc1,,inactive: 25%

Structure (SMILES),Potency,"activity change, negative = inhibition"
CCCCOc1ccc(C(=O)Nc2ccc(SC(F)F)cc2)cc1OC,,inactive: 9.72%
Cc1ccc(-c2csc3nc4c5ccccc5c(NCCCN(C)C)nn4c(=O)c23)cc1,"inconclusive [inhibitor, partial curve, poor fit]",
COc1ccc(-c2csc(Nc3ncccn3)n2)cc1C,,inactive: 92.9%
COc1ccccc1CN1CCN(Cc2ccc(Cl)cc2)CC1,"inconclusive [inhibitor, single point]",
CN(Cc1ccc(Cl)cc1Cl)C(=O)CN1C(=O)NC2(CCCC2)C1=O,,inactive: 19%
O=C(NCC(c1ccco1)N1CCN(c2ccccc2F)CC1)C1CCCCC1 (stereo not drawn),active: 11.7 µM,
Cc1cc(C)cc(C(=O)OCC(=O)NC(=O)NC2CCCC2)c1,"inconclusive [inhibitor, single point]",
Cn1c(=O)c([N+](=O)[O-])c(-n2cnc3ccccc32)c2ccccc21,,inactive: 0%
COc1ccc2c(c1)C(=O)[C@@H](O)[C@H](c1ccc(OC)c(Br)c1)O2,active: 3.7 µM,
CCCn1ncc([C@@H]2C[C@H]3CN(Cc4cccc(Cl)c4)C(=O)[C@]34CCCN24)c1C,"inconclusive [inhibitor, partial curve]",
C=CCn1c(O)c(/C(C)=N/NC(=S)Nc2ccccc2)c(=O)[nH]c1=O,,inactive: 12.5%
O=C(CCN1C(=O)/C(=C/c2ccccc2)SC1=S)NC1CCS(=O)(=O)C1 (stereo not drawn),"inconclusive [inhibitor, partial curve]",
Cc1ccsc1C(=O)N1CCC(CO)(Cc2ccccc2)CC1,,inactive: 9.98%
COc1ccc(S(=O)(=O)N2CCC(C(=O)NCCC3=CCCCC3)CC2)cc1OC,"inconclusive [inhibitor, partial curve, poor fit]",
O=C1/C(=C/C=C/c2ccccc2)Oc2c1ccc(O)c2CN1CCN(CCO)CC1,"inconclusive [inhibitor, single point]",
CCOC(=O)c1ccc(NC(=S)N2CCC(O)CC2)cc1,,inactive: 72.9%
COc1ccccc1CN(C(=O)CCl)C(C(=O)NC1CCCCC1)c1ccncc1 (stereo not drawn),"inconclusive [inhibitor, partial curve, poor fit]",
Cc1ccc(C)c(-n2c(-c3ccc(Br)cc3)csc2=NC(=O)c2ccccc2F)c1,active: 0.415 µM,
O=C1CN(c2ccccc2)C(=O)N1,,inactive: 31%
CC1(NC(=O)c2cccc(S(=O)(=O)N3CCN(c4ccccc4)CC3)c2)CCS(=O)(=O)C1 (stereo not drawn),"inconclusive [inhibitor, single point]",
O=C(COc1ccc(/C=N/NS(=O)(=O)c2ccccc2)cc1)NCc1ccccc1,"inconclusive [inhibitor, partial curve, poor fit]",
COc1cccc(/C=C/C(=O)NNC(=O)c2cc(C)oc2C)c1,,inactive: -6.02%
